Laboratory results reported in PubChem BioAssay AID686979 (National Center for Advancing Translational Sciences (NCATS), 2013).
The whole screen tested about 420,000 compounds, of which about 50,000 (12%) were called active. Inconclusive results, whose numbers are uncertain, are shown with a selection of clear calls. Calls follow the shape of the dose curve; as a rule, active = well fitted inhibition curve with a large enough effect; inconclusive = small, poorly fitted or top-dose-only effect; inactive = flat fitted curve, though single readings scatter. No potency is given beside an inconclusive call; the fits are too rough.
% is scaled to controls: 0 for no effect and ±100 for the full control effect; potency is read from the fitted curve at half-maximal effect; tags tell the direction and shape of the fitted curve.

Assay: qHTS for Inhibitors of human tyrosyl-DNA phosphodiesterase 1 (TDP1): qHTS in cells in presence of CPT; also: nearly all actives have a fitted effect of over 55% in size
Conditions: chicken DT40 Tdp1-/-;hTDP1 cells + 20 nM CPT, ATP luminescence, 48 h; activity change, negative = growth inhibition: at 46.2 µM (top of the series) unless noted
Procedure, shortened: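 Chicken DT40 Tdp1-/- cells stably complemented with human TDP1 were seeded at 400 cells/well in medium containing 20 nM camptothecin, exposed to pin-transferred compounds, and grown at 37 °C for at least 48 hr. Viability was read as ATP luminescence.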
With `Cc1cccc(CNS(=O)(=O)c2ccc(-c3cnc(C4CC4)o3)cc2)c1` the Potency was active: 16.4 µM.
In the case of `CCOC(=O)c1c(NC(=S)SC)sc(C(=O)N2CCc3ccccc3C2)c1C`, the Potency is reported as inconclusive [inhibitor, single point].
With `C=CCOC(=O)C1=C[C@H](C2CCCCC2)C[C@H](OCc2ccc(CO)cc2)O1` the activity change, negative = growth inhibition was inconclusive: -32.9% [inhibitor].
In the case of `O=C(NCCc1ccc(Cl)cc1)Nc1ccc(F)cc1`, the Potency is reported as inconclusive [inhibitor, single point].
With `COc1ccc(C(CC(=O)c2ccc(C)cc2)C(C#N)C#N)cc1OC` (stereo unspecified) the Potency was active: 4.11 µM.
In the case of `O=C(O)c1oc2ccc(Br)cc2c1-n1cccc1`, the Potency is reported as inconclusive [inhibitor, single point].
For `O=C(/C=C/c1ccc(F)cc1)NC(=S)NNC(=O)c1cccnc1`, the Potency was inconclusive [inhibitor, single point].
With `CCOC(=O)c1c(CN2CCCCC2)n(C)c2cc(Br)c(OC)cc12` the Potency was inconclusive [inhibitor, single point].
With `Cc1ccc(S(=O)(=O)SC/C=C/CSS(=O)(=O)c2ccc(C)cc2)cc1` the Potency was inconclusive [inhibitor, single point].
In the case of `O=C(N/N=C/c1ccccn1)c1cc(Br)ccc1O`, the Potency is reported as inconclusive [inhibitor, single point].
For `Cc1cccc(C2C3=C(Nc4[nH]n(-c5ccccc5)c(=O)c42)c2ccccc2C3=O)c1` (stereo unspecified), the Potency was inconclusive [inhibitor, single point].
For `O=C(c1cccc(S(=O)(=O)N2CCOCC2)c1)N(CCc1ccccc1)Cc1ccccc1`, the Potency was inconclusive [inhibitor, single point].
For `CC1(C)CC2CC(C)(CN2Cc2cccc([N+](=O)[O-])c2)C1` (stereo unspecified), the “activity change, negative = growth inhibition” value was inactive: -24.7%.
With `COc1ccc(OC)c(C2Nc3c(Cl)ccc(C(=O)O)c3C3C=CCC32)c1` (stereo unspecified) the Potency was inconclusive [inhibitor, single point].
With `COc1ccc(S(=O)(=O)Nc2cccc(-c3ccc(N4CCC(C)CC4)nn3)c2)cc1OC` the Potency was inconclusive [inhibitor, single point].
For `COC1OCC(O)C(OC(=O)c2ccccc2)C1OC(=O)c1ccccc1` (stereo unspecified), the Potency was inconclusive [inhibitor, partial curve].
For `COc1ccc(NS(=O)(=O)c2ccc(NC(=S)NC(=O)/C=C/c3ccccc3)cc2)nn1`, the Potency was active: 11.6 µM.
In the case of `O=S1(=O)CCN(c2ccccc2CC(c2c[nH]c3ccccc23)c2c[nH]c3ccccc23)CC1`, the Potency is reported as active: 8.2 µM.
With `Cc1cccc(-c2noc(-c3ccccc3NC(=O)C3CC(=O)N(c4ccccc4C)C3)n2)c1` (stereo unspecified) the Potency was active: 23.1 µM.
For `CC(C)NCCCCOc1ccc(Br)cc1Cl`, the Potency was active: 23.1 µM.
With `Cc1csc(Nc2ccc(Cl)cc2)[n+]1-c1ccc(Cl)cc1` the Potency was inconclusive [inhibitor, single point].
With `O=C(/C=C/c1ccccc1)c1c[nH]c2ccccc12` the “activity change, negative = growth inhibition” value was inactive: -20.1%.
In the case of `Cc1cc(-c2ccc(C)c(S(=O)(=O)NC(c3cccs3)C(C)C)c2)on1` (stereo unspecified), the Potency is reported as active: 18.4 µM.
In the case of `CCCOc1ccc(F)cc1-c1cc(C(=O)Nc2ccc(OC)cc2C)[nH]n1`, the Potency is reported as inconclusive [inhibitor, single point].
For `O=C(Nc1cccc(F)c1)N(Cc1ccc(Cl)cc1)CC(O)C(F)(F)F` (stereo unspecified), the Potency was inconclusive [inhibitor, single point].
With `CC(=O)c1ccc(NC(=O)CN2C(=O)NC(C)(C3CCCCC3)C2=O)cc1` (stereo unspecified) the “activity change, negative = growth inhibition” value was inactive: -5.88%.
With `COc1ccccc1C1=NOC(C)(c2sc(-c3ccc(Cl)cc3)nc2C)C1` (stereo unspecified) the Potency was inconclusive [inhibitor, single point].
With `CN(C)CCNC(=O)c1c(CSc2ccc(Cl)cc2)noc1C(=O)NCc1ccccc1` the Potency was active: 18.4 µM.
With `Cc1ccc(-c2nnnn2C2C/C(=N\NC(N)=S)C3OCC2O3)cc1` (stereo unspecified) the “activity change, negative = growth inhibition” value was inactive: 6.28%.
In the case of `COc1ccc(NC(=O)c2cc3c(COC(C)=O)cnc(C)c3oc2=Nc2cccc(C(=O)O)c2)c(OC)c1`, the “activity change, negative = growth inhibition” value is reported as inactive: -23.1%.
For `CC(C)(C)c1cc(-c2n[nH]c(=S)n2-c2ccc(Cl)cc2)n[nH]1`, the Potency was inconclusive [inhibitor, single point].
In the case of `C[C@H]1[C@@H](Cc2cc(Cl)cc(Cl)c2)N(c2ccccc2)c2ccccc2CN1Cc1ccccc1`, the Potency is reported as inconclusive [inhibitor, single point].
In the case of `Fc1ccc(NC(=S)NCCc2ccccn2)cc1`, the “activity change, negative = growth inhibition” value is reported as inactive: 3.91%.
In the case of `COc1ccccc1N1CCN(/N=C/c2cccc(OC)c2O)CC1`, the “activity change, negative = growth inhibition” value is reported as inactive: -17.5%.
In the case of `Cc1nc(Cl)sc1C(=O)Nc1cccc2ccccc12`, the Potency is reported as inconclusive [inhibitor, single point].
In the case of `O=C(Nc1ccccc1O)c1cc(S(=O)(=O)N2CCOCC2)c(Cl)cc1Cl`, the Potency is reported as inconclusive [inhibitor, partial curve, poor fit].
For `c1ccc(SCCN2CCc3ccccc3C2)cc1`, the Potency was inconclusive [inhibitor, single point].
With `COc1ccc(NC(=O)CCSc2nc(-c3ccc(OC)cc3)cc(C(F)(F)F)n2)cc1` the “activity change, negative = growth inhibition” value was inactive: -24.7%.
With `CCCCCCCCCC1(CC(=O)OCC)SCCN1C(N)=O` (stereo unspecified) the Potency was inconclusive [inhibitor, single point].
For `CC(C)CCNC(=O)c1ccc2c(c1)NC(=O)C(CS(=O)(=O)Cc1ccc(F)cc1)N2` (stereo unspecified), the Potency was active: 16.4 µM.
In the case of `CSc1ccc(OC2CCN(Cc3ccccc3)CC2)cc1`, the Potency is reported as inconclusive [inhibitor, single point].
With `O=C(COC(=O)CCc1ccccc1)Nc1ncc(Cl)cc1Cl` the “activity change, negative = growth inhibition” value was inactive: -1.55%.
In the case of `CCOc1ccc(/C(CCC(=O)O)=N/NC(=S)NC(C)C)cc1`, the Potency is reported as inconclusive [inhibitor, single point].
With `O=C(CNC(=O)[C@@H]1Cc2ccccc2CN1)NCc1ccco1` the “activity change, negative = growth inhibition” value was inactive: -4.39%.
For `COCCN(C(=S)Nc1c(C)cc(C)cc1C)C(C)c1cccnc1` (stereo unspecified), the Potency was inconclusive [inhibitor, single point].
For `CCc1nnc(SCc2c(F)cccc2Cl)c2cc3sccc3n12`, the Potency was inconclusive [inhibitor, single point].
